Assay results as given in the supplement of paper PMC3334620.
The full ranking holds about 33,000 sequences; the median of “E-score (-0.5 to 0.5)” is about -0.035, and the highest 2% start at about 0.35. Some of the results follow.

These sequences were tested against T1, Pdr3 (UniProt P33200) (assay: PBM E-score (8-mer binding enrichment) (E-score (-0.5 to 0.5)); higher = stronger / more preferred TF binding; most listed sequences are background and not binding sites). Settings: protein concentration: 200 nM; construct: GST-full length.
T1 sequence: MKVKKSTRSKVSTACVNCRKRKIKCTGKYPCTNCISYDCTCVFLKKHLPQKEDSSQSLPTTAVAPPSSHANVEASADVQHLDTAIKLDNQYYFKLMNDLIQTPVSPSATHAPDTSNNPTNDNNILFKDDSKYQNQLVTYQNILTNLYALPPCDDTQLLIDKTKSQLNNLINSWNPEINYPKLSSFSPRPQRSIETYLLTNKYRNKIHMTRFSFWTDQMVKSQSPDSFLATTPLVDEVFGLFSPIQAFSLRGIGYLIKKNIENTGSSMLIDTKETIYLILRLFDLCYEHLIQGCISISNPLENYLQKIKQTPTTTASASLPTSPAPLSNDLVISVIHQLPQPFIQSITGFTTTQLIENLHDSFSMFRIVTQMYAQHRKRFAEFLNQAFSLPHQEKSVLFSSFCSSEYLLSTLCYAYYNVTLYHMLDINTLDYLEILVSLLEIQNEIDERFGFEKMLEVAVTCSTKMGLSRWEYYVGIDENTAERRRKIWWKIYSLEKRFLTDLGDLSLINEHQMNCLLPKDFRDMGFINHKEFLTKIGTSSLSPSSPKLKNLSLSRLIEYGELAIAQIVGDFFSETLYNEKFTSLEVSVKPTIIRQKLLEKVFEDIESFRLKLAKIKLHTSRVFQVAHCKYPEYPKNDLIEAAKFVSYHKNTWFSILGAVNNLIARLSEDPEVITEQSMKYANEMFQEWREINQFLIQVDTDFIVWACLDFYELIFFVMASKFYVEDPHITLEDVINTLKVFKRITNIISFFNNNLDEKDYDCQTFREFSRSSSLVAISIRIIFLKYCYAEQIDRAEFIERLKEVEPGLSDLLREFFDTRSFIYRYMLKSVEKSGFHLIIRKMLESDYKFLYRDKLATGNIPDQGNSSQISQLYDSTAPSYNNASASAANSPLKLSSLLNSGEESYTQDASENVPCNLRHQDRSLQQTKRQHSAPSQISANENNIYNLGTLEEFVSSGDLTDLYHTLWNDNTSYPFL
How it was run: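 Detection of bound protein used fluorescent anti-GST, with scans normalised by masliner. The proteins were GST-tagged yeast transcription factors applied at about 100-200 nM to universal all-10-mer Agilent arrays made double-stranded by primer extension. Each ungapped eight-base word, pooled with its reverse complement, was scored with an E-score from the Universal PBM Analysis Suite.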

| Sequence | PBM E-score |
| --- | --- |
| TACGTGCA | 0.0826 |
| CACATCAA | 0.00696 |
| GGGTCGTA | -0.0591 |
| GACACGAA | -0.00782 |
| AGCTCTAG | -0.0956 |
| GAATCAAC | 0.179 |
| CATGGGTC | -0.0685 |
| GCATGCAC | -0.0969 |
| CCGAATCA | 0.172 |
| GCCATTAA | 0.0232 |
| ACAGTCCC | -0.033 |
| TAGGGGAA | -0.157 |
| ATGGAGTG | -0.146 |
| ACTATCAT | 0.061 |
| AAGTGAAG | -0.0932 |
| AAACGGCT | -0.0409 |
| CGTGCCTA | -0.144 |
| CTCAGGCC | -0.178 |
| ATCCCCCC | -0.285 |
| ACCGCAAC | 0.254 |
| CGTATATC | -0.0754 |
| CGCCAGGC | 0.185 |
| CTTTTCCA | -0.215 |
| AGTACTCG | 0.0205 |
| ACTCCGCT | 0.14 |

| Sequence | PBM E-score |
| --- | --- |
| AGGTTAGA | -0.00179 |
| AGTTCACA | -0.134 |
| TCAATCAA | 0.177 |
| AAGAGTCT | -0.203 |
| CAAGGTCG | 0.0589 |
| CGAGTTAA | 0.121 |
| CACTGAAG | 0.151 |
| CGGGCCTC | 0.0999 |
| AATTGGTA | -0.0654 |
| CCATTAGC | -0.223 |
| CGATTCAG | -0.15 |
| GCTGTCTA | -0.284 |
| TACCACAA | -0.112 |
| AGCAGGCA | -0.21 |
| AGTCGATC | 0.121 |
| TCCTAACA | -0.19 |
| AAAACACC | -0.0175 |
| ACGACAAA | 0.0239 |
| CTTCAGCC | -0.229 |
| ACGTAGCG | -0.163 |
| ATTTTACA | -0.287 |
| CTCCCCTA | 0.0177 |
| CGCTTGCA | -0.00607 |
| CGCCGCAG | 0.066 |
| TAGCCTCA | -0.213 |

| Sequence | PBM E-score |
| --- | --- |
| CTCAATCC | 0.0935 |
| GGCGACTA | -0.0929 |
| ACGCCAGC | -0.133 |
| TCCCGACA | 0.148 |
| AGACTTCA | -0.354 |
| AATAAGAA | 0.164 |
| AAAGAATA | -0.00807 |
| GTCCTCTA | -0.222 |
| ATGGGCCC | 0.196 |
| CAACGGAC | 0.261 |
| CTTCGTGC | -0.219 |
| AGGGCGTC | 0.0756 |
| CATCAAAG | -0.031 |
| AAACCTTA | -0.0635 |
| AAACTATA | 0.129 |
| ACTACGTG | -0.181 |
| CAGTCCGC | 0.19 |
| CACCGTGG | -0.0232 |
| AGCTAAAG | -0.244 |
| GGCTGCGA | 0.117 |
| CCGCTGCC | 0.193 |
| CAAATACC | 0.00764 |
| ATGCGAGA | -0.174 |
| ACGACGCC | -0.0129 |
| GTGATTCA | -0.131 |

| Sequence | PBM E-score |
| --- | --- |
| CGGCGGGC | 0.218 |
| GGTAGTTA | -0.0665 |
| ACGCTGGG | -0.0598 |
| AGGCAAGG | -0.313 |
| CGGCAGGC | 0.0258 |
| ACATATAC | -0.0316 |
| ACTGGGAT | -0.0867 |
| ATGGACGG | 0.31 |
| CGTACGAC | -0.265 |
| CAGATCAC | 0.027 |
| GGAGTCGA | -0.00176 |
| CGTAATTA | -0.0446 |
| CGATGGAG | 0.189 |
| CCGAGCTA | 0.183 |
| CACGAGGA | -0.107 |
| CATGCAAG | -0.053 |
| AGATGAGC | -0.234 |
| TATGTAGA | -0.182 |
| GCACGCAA | -0.0728 |
| CGCCTAGC | -0.263 |
| CGCCTACA | -0.101 |
| AGTAACAA | -0.13 |
| CTACAGAG | -0.187 |
| GGAATATA | 0.277 |
| ATGGTGGC | -0.169 |

| Sequence | PBM E-score |
| --- | --- |
| GGAACGGA | 0.431 |
| AAAAGTGA | 0.029 |
| GAGTCATA | -0.0466 |
| ATATTTAC | 0.0408 |
| CTGCGTCC | -0.0157 |
| CAATCGGG | 0.213 |
| GGCTTTAA | -0.141 |
| ATCGTGAG | -0.0865 |
| CGCGTCAA | -0.0248 |
| ATACTAAA | 0.142 |
| AGCCAAAC | 0.126 |
| CGAATCTC | 0.194 |
| ATCCTGTA | -0.163 |
| AGCAAATG | -0.189 |
| TAGAGACA | -0.214 |
| GGCATTAC | 0.27 |
| GAGATCTC | 0.111 |
| CGAAAAGA | 0.103 |
| ATGTAGAA | -0.102 |
| AAATCGCC | 0.0775 |
| CAATCAAG | -0.189 |
| CACAGTTA | -0.0127 |
| ACGATACC | 0.129 |
| CGTGTCTC | -0.024 |
| AAGCAGAT | 0.0624 |

| Sequence | PBM E-score |
| --- | --- |
| CGTACACA | -0.0107 |
| TGCGATAA | 0.0592 |
| ATGTCACC | 0.138 |
| TGCAAACA | -0.317 |
| ACTAGGCG | 0.00889 |
| CGAATCGA | 0.234 |
| ATCCCGCG | 0.465 |
| CGTTGCTC | 0.0359 |
| GTTGTAGA | -0.177 |
| GAATGTCC | 0.163 |
| AAGGATCA | -0.14 |
| ATGAAGAC | -0.0295 |
| AACTTTAA | 0.162 |
| TAGCTGGA | -0.304 |
| GAAAGCCA | -0.104 |
| CTGTCACA | -0.276 |
| AAAAATTA | 0.0222 |
| ATGCGTGC | -0.00612 |
| ATGAGTTG | 0.0717 |
| GGGAGCTA | -0.0835 |
| CGTACGCC | -0.0877 |
| ATAAGGCA | -0.134 |
| CTCGTGGA | 0.0284 |
| GAGCGTGA | -0.128 |
| CCTGGCTA | -0.245 |

| Sequence | PBM E-score |
| --- | --- |
| CACAAGGC | -0.13 |
| CAGGAGTC | -0.116 |
| CCCTCAGG | -0.186 |
| ACTGAAAT | -0.13 |
| ATGATGTC | 0.116 |
| AGTTACTG | 0.0448 |
| AGAAATGG | -0.0712 |
| CACATGTG | -0.171 |
| CATCAACA | 0.136 |
| AGACTGGA | -0.213 |
| AATGTCCG | 0.294 |
| TGAGCTCA | 0.0858 |
| AAGCCCAA | -0.123 |
| CACAGAGA | -0.136 |
| CAATCTAG | -0.00886 |
| CAACCGGA | 0.379 |
| CGGTAAAA | 0.195 |
| GACCTGCC | 0.0141 |
| CACTAACG | -0.161 |
| CCTTCCTC | -0.201 |
| GCGTGACC | -0.0544 |
| GAATATTC | 0.189 |
